# According to the supplement of paper PMC4604168 (melanoma cell lines):
# The list shows a part of the results. Many values rest on one well or one pass, so single values are uncertain.
# Test system: UACC257
# Test: cell count relative to DMSO control; melanoma cells; higher = more viable cells
# Settings: library dose: standard library concentration; 72 h
# 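Note: cells treated in 1,536-well plates, then fixed and DAPI-stained, with nuclei counted from automated high-throughput microscope images.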
row,Compound,cell count [%]
1,"CS(=O)(=O)c1ccc(C(=O)Nc2ccc(Cl)c(-c3ccccn3)c2)c(Cl)c1 [vismodegib] + Cn1c(Nc2ccc(C(F)(F)F)cc2)nc2cc(Oc3ccnc(-c4ncc(C(F)(F)F)[nH]4)c3)ccc21 [CHIR265] (first compound 5 µM, partner dose 0.4 µM)",85.1
2,"CS(=O)(=O)c1ccc(C(=O)Nc2ccc(Cl)c(-c3ccccn3)c2)c(Cl)c1 [vismodegib] + O=C(CCCCCCC(=O)Nc1ccccc1)NO [vorinostat] (first compound 5 µM, partner dose 0.4 µM)",67.9
3,"CS(=O)(=O)c1ccc(C(=O)Nc2ccc(Cl)c(-c3ccccn3)c2)c(Cl)c1 [vismodegib] + Cc1cc(Nc2cc(N3CCN(C)CC3)nc(/C=C/c3ccccc3)n2)n[nH]1 [ENMD2076] (first compound 5 µM, partner dose 0.2 µM)",96.9
4,"CS(=O)(=O)c1ccc(C(=O)Nc2ccc(Cl)c(-c3ccccn3)c2)c(Cl)c1 [vismodegib] + OCc1c[nH]c2ccccc12 [Indole-3-carbinol] (first compound 5 µM, partner dose 4 µM)",101
5,"CN(c1ncccc1CNc1nc(Nc2ccc3c(c2)CC(=O)N3)ncc1C(F)(F)F)S(C)(=O)=O + C[C@]1(c2nc3c(C(N)=O)cccc3[nH]2)CCCN1 [Veliparib] (first compound 0.4 µM, partner dose 7 µM)",82.4
6,"C=C(c1ccc(C(=O)O)cc1)c1cc2c(cc1C)C(C)(C)CCC2(C)C [Bexarotene] + Cc1ccc(NC(=O)c2cccc(N(C)C)c2)cc1NC(=O)c1ccc(O)cc1 [ZM336372] (first compound 10 µM, partner dose 10 µM)",82.8
7,"CCCS(=O)(=O)Nc1ccc(F)c(C(=O)c2c[nH]c3ncc(Cl)cc23)c1F + CC1(C)NC(=O)N(c2ccc([N+](=O)[O-])c(C(F)(F)F)c2)C1=O [nilutamide] (first compound 0.4 µM, partner dose 5 µM)",92.8
8,"CS(=O)(=O)c1ccc(C(=O)Nc2ccc(Cl)c(-c3ccccn3)c2)c(Cl)c1 [vismodegib] + C[C@@H]1CCN(C(=O)CC#N)C[C@@H]1N(C)c1ncnc2[nH]ccc12 [CP690550] (first compound 5 µM, partner dose 5 µM)",79.1
9,"NC1(c2ccc(-c3nc4ccn5c(=O)[nH]nc5c4cc3-c3ccccc3)cc2)CCC1 + CN(NC(=O)CC(=O)NN(C)C(=S)c1ccccc1)C(=S)c1ccccc1 [STA4783] (first compound 2 µM, partner dose 0.03 µM)",83.2
10,"CS(=O)(=O)c1ccc(C(=O)Nc2ccc(Cl)c(-c3ccccn3)c2)c(Cl)c1 [vismodegib] + Nc1ccn([C@@H]2O[C@H](CO)[C@@H](O)C2(F)F)c(=O)n1 [gemcitabine] (first compound 5 µM, partner dose 0.002 µM)",114
11,"CCCS(=O)(=O)Nc1ccc(F)c(C(=O)c2c[nH]c3ncc(Cl)cc23)c1F + O=C(CCCCCCC(=O)Nc1ccccc1)NO [vorinostat] (first compound 0.4 µM, partner dose 0.4 µM)",66
12,"CN(c1ncccc1CNc1nc(Nc2ccc3c(c2)CC(=O)N3)ncc1C(F)(F)F)S(C)(=O)=O + Cn1nnc2c(C(N)=O)ncn2c1=O [temozolomide] (first compound 0.4 µM, partner dose 10 µM)",80.9
13,"CCCS(=O)(=O)Nc1ccc(F)c(C(=O)c2c[nH]c3ncc(Cl)cc23)c1F + COc1ccc(Cl)c(Nc2nc3ccccc3nc2NS(=O)(=O)c2cccc(NC(=O)C(C)(C)N)c2)c1 [XL147] (first compound 0.4 µM, partner dose 4 µM)",93.5
14,"NC1(c2ccc(-c3nc4ccn5c(=O)[nH]nc5c4cc3-c3ccccc3)cc2)CCC1 + Cn1c(=O)n(-c2ccc(C(C)(C)C#N)cc2)c2c3cc(-c4cnc5ccccc5c4)ccc3ncc21 [NVP-BEZ235] (first compound 2 µM, partner dose 0.02 µM)",82.9
15,"NC1(c2ccc(-c3nc4ccn5c(=O)[nH]nc5c4cc3-c3ccccc3)cc2)CCC1 + Cc1nc(Nc2ncc(C(=O)Nc3c(C)cccc3Cl)s2)cc(N2CCN(CCO)CC2)n1 [dasatanib] (first compound 2 µM, partner dose 0.02 µM)",70.8
